# Results taken from the DeepSol protein solubility set.
# Experiment: soluble on expression in E. coli; label from the status in PepcDB or PDB records
sequence,measurement,value
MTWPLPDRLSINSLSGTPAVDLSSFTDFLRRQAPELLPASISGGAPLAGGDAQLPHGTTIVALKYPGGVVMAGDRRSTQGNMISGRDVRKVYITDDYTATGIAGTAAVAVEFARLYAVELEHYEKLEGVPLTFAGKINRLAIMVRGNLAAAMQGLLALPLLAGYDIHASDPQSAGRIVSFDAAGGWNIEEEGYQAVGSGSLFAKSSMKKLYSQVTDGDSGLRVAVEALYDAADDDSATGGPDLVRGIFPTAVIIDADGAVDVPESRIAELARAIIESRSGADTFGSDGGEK,soluble on expression in E. coli,soluble
